Test results published in PubChem BioAssay AID504466 (National Center for Advancing Translational Sciences (NCATS), 2011).
About 4,200 (1.3%) of roughly 330,000 compounds were called active. The inconclusive results got no clear call from the source; some entries with a clear call stand among them for comparison. The call rests on the fitted dose curve; in most records, active means well fitted activation curve with a large enough effect; inconclusive means small, poorly fitted or top-dose-only effect; inactive means no such curve, though single readings can be large or run the other way. Where the call is inconclusive, the potency comes from a doubtful curve fit.

Assay: qHTS screen for small molecules that induce genotoxicity in human embryonic kidney (HEK293T) cells expressing luciferase-tagged ELG1; further: nearly all actives have a fitted effect of over 60% in size
Conditions: HEK293T ELG1-luciferase reporter, luminescence, 16 h; series mostly up to 46 µM
Outline: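 Quantitative HTS format in 1536-well plates. HEK293T ELG1-luciferase reporter cells receive test compound and are incubated 16 hr at 37 °C, 5% CO2; ONE-Glo added, 30 min room temperature, then luminescence read.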
Potency means the concentration at half of the fitted maximal effect; tags describe the fitted curve by direction and shape.

| SMILES | Potency |
| --- | --- |
| CC1CCCN(C(=O)COC(=O)c2ccc3[nH]c4c(c3c2)CCCC4)C1 (stereo not drawn) | inactive |
| O=C(Nc1ccc2c(c1)OCCO2)c1cccs1 | active: 16.4 µM |
| Oc1ccc(-c2nccc(-c3ccc(Br)cc3)n2)cc1 | inactive |
| CC(C)CNC(=S)NC(=O)c1ccc(Cl)cc1 | inconclusive: 14.6 µM [activator, partial curve] |
| Clc1ccc(OCCCCSc2ncccn2)cc1 | inactive |
| COc1cccc2cc(-c3cc(=O)oc4cc(C)c(OCC(C)=O)cc34)oc12 | inactive |
| COc1ccc(NC(=S)Nc2ccc(N)c([N+](=O)[O-])c2)cc1 | inconclusive: 13 µM [activator, partial curve, poor fit] |
| COc1ccccc1NC(=O)c1ccc2[nH]c(C)c(C)c2c1 | inconclusive: 16.4 µM [activator, partial curve] |
| C=CCC1(CC=C)CCCN1C(=O)C1CCC(=O)N(CCc2ccccc2)C1 (stereo not drawn) | inconclusive: 7.3 µM [activator, partial curve] |
| Cc1[nH]c2ccccc2c1/C=N\NC(=O)c1ccco1 | inconclusive: 20.6 µM [activator, partial curve, poor fit] |
| CCOC(=O)c1cc(-c2cc(OC)c(OC)c(OC)c2)nc2c1c(=O)[nH]c(=O)n2Cc1ccccc1 | active: 8.2 µM |
| CCOC(=O)Nc1sc2c(c1C#N)CCCC2 | active: 14.6 µM |
| N/C(=N\OC(=O)CSc1ccccc1)c1ccccn1 | inconclusive: 18.3 µM [activator, single point] |
| Cc1ccc2c(nc3s/c(=C\c4ccc(-c5ccccc5C(=O)O)o4)c(=O)n32)c1C | inactive |
| CSc1ncccc1C(=O)Nc1ccc2c(c1)OCO2 | inactive |
| COc1ccc(CCNC(=O)c2coc(=O)c(Br)c2)cc1 | active: 18.3 µM |
| CCOc1ccc(C(=O)COC(=O)c2nn(CC)c(=O)c3ccccc23)cc1 | inactive |
| CC(=O)c1ccc(OCc2cc(=O)n3ccsc3n2)cc1 | inconclusive: 16.4 µM [activator, single point] |
| CC(/C=C/c1ccco1)=N/NC(=O)OC(C)(C)C | inconclusive: 23.1 µM [activator, partial curve, poor fit] |
| CCOC(=O)C1CCCN(C(=O)CCc2nnc(-c3ccc(C(C)=O)s3)o2)C1 (stereo not drawn) | active: 18.3 µM |
| C/C(=N\NC(=O)c1sccc1C)c1cccnc1 | inconclusive: 16.4 µM [activator, partial curve] |
| O=C(Nc1ccccc1)c1ccc(-c2ccccc2Cl)o1 | inconclusive: 23.1 µM [activator, single point] |
| COc1cc(-c2ccc3c(=O)c4ccccc4n(C)c3c2)cc(OC)c1OC | inactive |
| CCc1ccc(/C=N/NC(=O)c2nnn(-c3nonc3N)c2C(C)C)cc1 | inactive |

| SMILES | Potency |
| --- | --- |
| Fc1ccc(-c2nc(-c3cnccn3)no2)c(Cl)c1 | inconclusive: 6.51 µM [activator, partial curve] |
| CN(CC(=O)Nc1cccc(F)c1)C(=O)c1ccc(COc2ccccc2)cc1 | inconclusive: 18.3 µM [activator, single point] |
| O=C(c1ccccc1)c1ccc2c(c1)OCCCO2 | inconclusive: 5.17 µM [activator, partial curve] |
| COc1ccccc1NC(=O)CC(c1ccc(OC(C)C)cc1)c1ccccc1OC (stereo not drawn) | inactive |
| Cc1cc(CN(C)C(=O)c2cc(COc3ccc(C)c(C)c3)on2)n[nH]1 | active: 2.91 µM |
| O=C(/C=C/c1cccs1)N1CCCCC1 | inconclusive: 20.6 µM [activator, single point] |
| CC1=NC(=O)C(N=Nc2cccc(C(=O)O)c2)N1c1ccccc1 (stereo not drawn) | inconclusive: 0.206 µM [activator, single point] |
| O=C(CSc1nnc(-c2ccccc2O)o1)Oc1ccc(OCc2ccccc2)cc1 | inconclusive: 18.4 µM [activator, partial curve, poor fit] |
| CCCc1nnc(NC(=O)Nc2ccccc2OC)s1 | inconclusive: 14.6 µM [activator, partial curve, poor fit] |
| O=C(Nc1nccs1)c1ccc(N2CCOCC2)c([N+](=O)[O-])c1 | inconclusive: 2.59 µM [activator, partial curve, poor fit] |
| CSc1ccccc1NC(=O)C(=O)c1c[nH]c2ccccc12 | inactive |
| CCCCCn1c(=O)[nH]c2cc(C(=O)N3CCN(Cc4ccc5c(c4)OCO5)CC3)ccc2c1=O | inactive |
| CCOC(=O)c1ccc2nc(NC(=O)c3cccs3)sc2c1 | inconclusive: 2.31 µM [activator, partial curve] |
| CC(C)Cc1cc(C(=O)Nc2ccc(F)cc2F)no1 | active: 16.4 µM |
| CCOC(=O)C(=Cc1cc(=O)c(OC)co1)C(=O)OCC | inactive |
| CC(=O)c1c(C)nc(Nc2nc3ccccc3s2)nc1C | inconclusive: 2.06 µM [activator, full curve] |
| N#C/C(=N\Nc1ccc(F)cc1)C(=N)N1CCCCCC1 | inconclusive: 1.83 µM [activator, partial curve, poor fit] |
| Cc1[nH]c2ccccc2c1/C=N/NC(=O)C1CC1(c1ccccc1)c1ccccc1 (stereo not drawn) | inactive |
| CCOC(=O)Cc1csc(NC(=O)NC2(C(F)(F)F)Oc3ccc(Cl)cc3O2)n1 (stereo not drawn) | inconclusive: 29.1 µM [activator, partial curve, poor fit] |
| Cc1noc(C)c1CSc1nc2ccccc2[nH]1 | inconclusive: 25.9 µM [activator, partial curve, poor fit] |
| CC1(C)Cc2c(c(-c3ccco3)nc3sc4c(NCC5CCCO5)ncnc4c23)CO1 (stereo not drawn) | inactive |
| Cc1ccc2nc(Cl)c(/C=N/Nc3ccc(C(=O)O)cc3)cc2c1 | inconclusive: 1.3 µM [activator, full curve] |
| C[C@H](CO)N1C[C@H](C)[C@@H](CN(C)C)Oc2c(NS(=O)(=O)c3cn(C)cn3)cccc2C1=O | inactive |
| CCc1ccc(N2C(=O)C(Cl)=C(Nc3ccc(C(=O)N4CCCC4)cc3)C2=O)cc1 | inconclusive: 29.1 µM [activator, partial curve, poor fit] |
